Whole data set: some 1,800 sequences, median “median log2 fold change of GCK-ALFA target abundance (FLAG IP / Myc IP barcode read proportion)” near 0.14, cut for the lowest 2% near -0.84. The list shows a part of the results.
T1: TRAF2, Q12933
T1 chain: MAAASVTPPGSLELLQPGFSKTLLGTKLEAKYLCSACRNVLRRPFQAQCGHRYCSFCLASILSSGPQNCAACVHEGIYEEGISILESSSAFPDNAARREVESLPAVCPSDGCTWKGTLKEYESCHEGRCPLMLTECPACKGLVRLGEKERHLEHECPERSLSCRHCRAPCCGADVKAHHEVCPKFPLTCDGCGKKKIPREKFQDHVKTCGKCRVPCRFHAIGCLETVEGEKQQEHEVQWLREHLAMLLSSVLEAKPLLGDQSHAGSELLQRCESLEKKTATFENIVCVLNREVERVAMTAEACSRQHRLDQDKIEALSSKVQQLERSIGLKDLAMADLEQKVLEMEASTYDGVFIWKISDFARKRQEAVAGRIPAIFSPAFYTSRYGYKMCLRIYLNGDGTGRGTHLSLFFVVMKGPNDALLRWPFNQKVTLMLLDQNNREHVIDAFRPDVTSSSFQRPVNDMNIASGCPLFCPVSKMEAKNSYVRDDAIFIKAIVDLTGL

B1: traf2_out_17_162_1509 (protein)
chain: SATAALEAEARAELAALRAEKAALKAKMANLDSLSKEELSDLLVEASEARRRALELAERLREHAAELGEERAAALIDEAEAIAEELQKIANEAYKELLKK
B2: traf2_out_13_95_1133 (protein)
chain: SAETAKKIMEIADKMLDEVEKILEELLKIFEKKGIGVEEIKEALYLARHQSINEAIAKLEELSKKYPEFKEELDKAIEEIKALREKAGKEVAEILKKEKE
B3: traf2_out_20_3_2162 (protein)
chain: SELEEEAEKAREEAIKLLEEAAKLADKETAERLKELKKKVEESKNLPYDDRLVVLSEVRREVRELAEEARAAGKEELAKVLEEAADALNRAMNLTYKIIE
B4: traf2_out_15_48_1347 (protein)
chain: DIEKLQETARKIADLADATRDEVAARLAELRAEATPEEAALLAEIRAAAESGATLRTVRGLLLAARPQFSPELAARLAELAERIDETIREMSRLYNETEK
B5: traf2_out_6_156_2377 (protein)
chain: TKEEILKKAKEKIEKEIKKLAEASEEKKIKYISEIAGAVYKALQALREAGASVEEIKKAVEELKKVAEEEAKKAGLPEDTINLLLSSINAVGEVALREAE
B6: traf2_out_11_155_720 (protein)
chain: SEKLKLNQELVNEIMAIADEADAELEAIIAEVAEEDPEVAAELRALLEANKDAGITTKLLLAARKLREAGYEEQAKRVEELLEKTQKKMNELYKEYEKKL
B7: traf2_out_14_149_1262 (protein)
chain: MTEEEINKKAAELAKKTAEALKEAIALLDAGKVEEAKKLLEELAKWLEEEGKKIGITPSSLFIIEEAIKALDTDLAEAKALLKRALDNAEALAEVYESKI
B8: traf2_out_20_38_2027 (protein)
chain: SEEEKEEEKLKKLIEVANEAYDEAEALIKELKAEGKSIEEIAEIAKEKIKEILEKEGLEEELKELKEDVDRVLNSPDAERLIARILARAVAKAEQKRLEK

Molecular target: T1, TRAF2, Q12933
Experiment: median log2 fold change of GCK-ALFA target abundance (FLAG IP / Myc IP barcode read proportion) (log2 ratio); each designed protein is fused to an ALFA-tag nanobody in HEK293 cells to bring the named protein to FLAG-tagged glucokinase (GCK); Myc marks an untargeted standard; higher = target protein stabilised (more abundant)
Conditions: target protein: 3xFLAG-MCP-GCK-ALFA reporter; HEK293 landing pad (RPLP)
How it was run: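 The readout is target abundance, the per-binder median log2 ratio of FLAG to Myc barcode read proportions. It came from HEK293 landing-pad cells carrying a recombined ALFA-nanobody-fused binder library, induced with 2 μg mL^−1 doxycycline and transfected with a plasmid for a FLAG-tagged target and a Myc-tagged standard. After 48 h, lysates were immunoprecipitated with anti-FLAG and anti-Myc, and circular RNA barcodes were reverse transcribed, amplified and sequenced. Each barcode needed a proportion of at least 10^−7 in both replicates and each binder at least 3 barcodes per replicate, a pseudocount of 10^−6 was added, and the replicates were pooled.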

In order of rising “median log2 fold change” value:
1. B2  -0.0113
2. B1  -0.000298
3. B8  0.114
4. B5  0.122
5. B4  0.135
6. B7  0.162
7. B6  0.356
8. B3  0.36
